# Measured values from patent US20230101803A1, “3CLPRO-TARGETING PHILLYRIN, DERIVATIVE THEREOF, AND USE THEREOF AGAINST NOVEL CORONAVIRUS” (DALIAN FUSHENG NATURAL MEDICINE DEVELOPMENT CO., LTD., priority 2020, published 2023).
# Tested on: SARS-CoV-2 strain of COVID-19 virus
# Assay: Cytopathic effect (CPE) inhibition of COVID-19 virus in VeroE6 cells in vitro
# Conditions: SARS-CoV-2, VeroE6 cells
Compound,half maximal inhibitory concentration (IC50) (CPE),inhibitory effect (compared in the same study) (compared with composition and pure phillyrin)
phillyrin [KD-1],179.1 µg/mL,–
COc1cc([C@H]2OC[C@H]3[C@@H]2CO[C@H]3c2ccc(OC)c(OC)c2)ccc1O [phillygenin],–,worse
